Test results reported in the supplement of paper PMC3334620.
The full ranking holds about 33,000 sequences; the median of “E-score (-0.5 to 0.5)” is about -0.043, and the highest 2% start at about 0.37. The list shows a part of the results.

Biological target: T1, Upc2 (UniProt Q12151)
T1 sequence: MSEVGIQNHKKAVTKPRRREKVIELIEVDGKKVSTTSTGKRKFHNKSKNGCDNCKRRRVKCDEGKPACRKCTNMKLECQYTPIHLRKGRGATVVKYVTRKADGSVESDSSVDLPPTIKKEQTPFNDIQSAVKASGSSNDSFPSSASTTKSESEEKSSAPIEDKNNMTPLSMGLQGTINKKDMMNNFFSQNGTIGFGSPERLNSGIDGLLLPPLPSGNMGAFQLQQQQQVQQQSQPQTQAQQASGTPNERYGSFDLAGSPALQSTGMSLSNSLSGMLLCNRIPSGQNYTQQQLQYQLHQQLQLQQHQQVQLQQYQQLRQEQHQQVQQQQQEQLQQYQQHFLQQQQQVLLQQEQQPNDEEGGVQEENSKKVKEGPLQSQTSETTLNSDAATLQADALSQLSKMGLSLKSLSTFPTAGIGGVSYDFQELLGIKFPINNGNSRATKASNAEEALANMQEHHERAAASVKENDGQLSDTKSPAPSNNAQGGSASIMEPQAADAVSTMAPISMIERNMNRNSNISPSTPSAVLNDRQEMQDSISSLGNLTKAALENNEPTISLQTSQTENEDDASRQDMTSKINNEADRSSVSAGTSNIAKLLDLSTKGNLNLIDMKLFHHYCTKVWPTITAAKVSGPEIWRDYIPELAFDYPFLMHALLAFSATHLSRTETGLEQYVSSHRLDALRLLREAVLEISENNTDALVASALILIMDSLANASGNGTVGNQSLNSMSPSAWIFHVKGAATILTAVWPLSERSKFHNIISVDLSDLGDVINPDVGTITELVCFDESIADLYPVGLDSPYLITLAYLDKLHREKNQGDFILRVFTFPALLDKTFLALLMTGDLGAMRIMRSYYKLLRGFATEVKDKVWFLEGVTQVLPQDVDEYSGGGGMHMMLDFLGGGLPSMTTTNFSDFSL
Assay: PBM E-score (8-mer binding enrichment) (E-score (-0.5 to 0.5)); higher = stronger / more preferred TF binding; most listed sequences are background and not binding sites
Conditions: protein concentration: 200 nM; construct: GST-full length
Outline: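 Universal all-10-mer Agilent arrays, fresh or stripped once, were converted to double-stranded form by primer extension. GST-tagged yeast transcription factors from PURExpress in vitro transcription/translation, full-length or DNA-binding domain only, were applied at about 100-200 nM and detected with fluorescent anti-GST. After masliner normalisation, the Universal PBM Analysis Suite scored each ungapped eight-base word together with its reverse complement by E-score.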

Sequence	PBM E-score
GAGCTCGA	0.229
ATGCCCTC	-0.0626
CTACAGAA	0.0595
ATCATCGC	0.0369
CCTTTGTC	-0.0379
CAGAAATA	0.0181
AACGGCAC	0.242
CTCCGAAG	-0.0527
AATTTTTG	-0.139
AATCGTGG	-0.0802
CCCTCACG	-0.26
GCATGCCC	0.0837
GGGTTGAC	-0.137
AAAAGGAG	0.0684
AGACGACG	0.237
ATCCAGTA	0.0719
CCCTTGTA	-0.176
TAGGCACA	-0.0989
GTGATTTA	-0.0482
TCCGGGAA	-0.0708
CAGAGATC	-0.211
GCTCGCAC	0.238
AAGTCAAA	0.0377
AAGCACGG	0.111
TGAGGACA	-0.0702

Sequence	PBM E-score
AAACATTA	0.013
CCGCTTAG	0.118
CCCACAGG	-0.209
CGGCCGGA	-0.131
TCTAACCA	-0.11
CCTACAGC	-0.334
ACTGAGAT	-0.184
AACTAAAG	-0.0481
AGGGAACA	-0.22
TACGCATA	0.33
CTTGTCGC	0.12
TATCGAAA	0.0917
CAGGATTA	-0.0638
GTATCAAC	-0.139
CGAGCACC	0.217
ACGACGAT	0.364
AAATATGG	0.00777
CTTGGGCC	-0.218
ATCAAGGG	-0.198
AACTGAAA	0.0202
CCCAAGAC	-0.158
CTCTCGCA	0.0682
CATCTTCA	-0.263
CAGAGATG	-0.222
CCTGACTC	-0.182

Sequence	PBM E-score
AGACCTTC	-0.123
GCCCATCA	-0.0741
TCAATTGA	0.229
CCAGCGCG	0.00961
CATCGGTC	-0.0341
GCAAGAAC	0.0856
GCGCCCGC	-0.213
GCGATCCC	0.0572
AAACAAGT	-0.0968
CTGGGGCC	-0.157
GCAATGGA	-0.0968
ACTACCGG	-0.246
CTGCCTCA	-0.16
GATTAGCA	-0.0131
TCGCAACA	0.00857
ATTGACCA	0.0151
CGCTAATA	0.165
GTTAAACA	0.106
AGCCCCGC	0.134
AAGTGGCA	-0.264
GATGCCCC	-0.17
AGCAGTAC	0.048
ACCACGTC	-0.182
CTCTCGTA	0.453
GCACCCCC	-0.13

Sequence	PBM E-score
ACCGTGAT	-0.1
ACCTGACG	-0.288
ACCGGGTG	-0.0751
GGGGAACC	-0.0476
TGGTCACA	-0.027
CTGACCAA	0.065
AGCAACCT	-0.0882
AACAGGTG	-0.0122
CCAAATCG	0.0485
CCTCAGAC	-0.0866
ACAATACC	-0.0117
GGGGTACA	-0.225
ACCACATC	-0.0237
ATGTTGAG	-0.147
AACTTTGG	0.037
GCAATTCC	-0.143
AAAGTAGG	0.0124
AGAGGCTG	-0.357
GTTGACTA	-0.0282
ACATGTAA	0.0361
GCCTTGGA	-0.174
AACTCTCT	-0.165
ACTGCCCG	-0.0382
CTCAAACA	0.0248
TAGGCCCA	-0.276

Sequence	PBM E-score
ATATCTGC	-0.193
ACGTCCCT	-0.195
ACGATAAA	0.321
ATTGCACC	-0.211
CCTTGATA	-0.0225
ATATTAAT	0.0826
ATCTAGCA	-0.206
GGCGCTTA	-0.125
ACGACAAC	0.349
ATGTGAAC	0.00151
AGCGCTTA	0.16
TAAATTAA	0.0422
CATCTCGG	0.0409
ATATGACG	-0.0482
ACCACAGA	-0.0741
AAATCGTC	0.14
AGAGCCAG	-0.238
CACCATTA	-0.0218
ACTGCTTA	-0.126
AGCCGCAT	-0.0414
CTCTAGAC	-0.0443
ACATACTA	0.00721
ATGAAAAG	-0.199
AACGCTTC	0.0315
AACCACCA	-0.101

Sequence	PBM E-score
CTAAAGAA	-0.0917
ACCGCGGG	0.0219
AAGATGGA	-0.212
GCTGCCCA	-0.0924
AGCGTTGG	-0.274
GCTAATCA	0.00342
GCGCTGGA	-0.261
TATTGCCA	-0.0387
ATTCGCTC	0.199
CGAAGTCA	0.0451
GAGCACTA	0.0918
ATCGCAAA	0.158
TACAATCA	0.0502
AAATGTAG	-0.168
ATTCGTAC	0.452
AAGAGATA	0.15
ACAGCTCC	-0.142
GATGTTCC	-0.0779
TACTCCAA	-0.0782
AACGAAGG	0.401
CTTCAGTC	-0.175
TCTTCGCA	0.109
ACGTCAAC	0.138
GATCGACA	-0.0894
CCATTTGA	-0.213

Sequence	PBM E-score
CGTGCTAA	-0.0577
AATCTTGT	-0.0994
GTCGCAGA	-0.00606
ACCCTCCC	-0.00421
AGTCTAGA	-0.24
TCCAAGGA	-0.0456
GATCAGGC	-0.216
ATTGAGTG	-0.104
CCGCGGAG	-0.066
CAGACATA	0.0243
CCTTCAGC	-0.241
GTCTTCAA	-0.174
ACTAGCGA	0.116
AAACGGCA	0.37
ATACATCA	0.0165
CGAGCTCG	0.329
GGCGTAGA	0.048
CTAACACC	-0.0508
AATTCGCA	0.115
GGGCTCAA	-0.0774
CAGAGGTA	0.0363
GGATCCAC	-0.119
